Data on 9 molecules can be found in patent US20240076343A1 (CEPHALON, published 2024).

Residue numbers refer to the chain shown, from its start. Numbers in names are those of the source. A value given as a limit tells only on which side of the number the result lay.

Experiment [1] deals with T1, human PD-1 on Jurkat cells (Jurkat+hPD-1) (human, UniProt Q15116 fragment).
T1 construct: extracellular domain and a portion of the transmembrane domain, stably expressed on Jurkat cells
In words: flow cytometry on Jurkat cells expressing hPD-1. On the technique in general: A flow cytometer gives signals particle by particle.

Experiment [2] has as its target T2, recombinant human CD122 extracellular domain, C-terminal poly-histidine tagged (human, UniProt P14784 27-240).
T2 construct: also called CD122/IL-2Rβ; IL-2Rβ
T2 sequence: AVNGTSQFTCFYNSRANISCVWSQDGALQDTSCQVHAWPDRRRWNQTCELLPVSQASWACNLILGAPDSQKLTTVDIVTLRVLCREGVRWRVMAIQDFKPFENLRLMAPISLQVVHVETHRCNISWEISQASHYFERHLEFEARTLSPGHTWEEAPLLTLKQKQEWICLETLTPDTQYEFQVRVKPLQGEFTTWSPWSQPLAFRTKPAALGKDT
Description: BLI (Octet). For orientation: BLI is a label-free optical method that tracks binding on a fibre tip over time.

In experiment [3] the target is T3, intermediate-affinity hIL-2 receptor complex (IL-2Rβγ) on TF1+IL-2Rβ cells (human, UniProt P14784 27-551; P31785 23-369).
T3 sequence 1: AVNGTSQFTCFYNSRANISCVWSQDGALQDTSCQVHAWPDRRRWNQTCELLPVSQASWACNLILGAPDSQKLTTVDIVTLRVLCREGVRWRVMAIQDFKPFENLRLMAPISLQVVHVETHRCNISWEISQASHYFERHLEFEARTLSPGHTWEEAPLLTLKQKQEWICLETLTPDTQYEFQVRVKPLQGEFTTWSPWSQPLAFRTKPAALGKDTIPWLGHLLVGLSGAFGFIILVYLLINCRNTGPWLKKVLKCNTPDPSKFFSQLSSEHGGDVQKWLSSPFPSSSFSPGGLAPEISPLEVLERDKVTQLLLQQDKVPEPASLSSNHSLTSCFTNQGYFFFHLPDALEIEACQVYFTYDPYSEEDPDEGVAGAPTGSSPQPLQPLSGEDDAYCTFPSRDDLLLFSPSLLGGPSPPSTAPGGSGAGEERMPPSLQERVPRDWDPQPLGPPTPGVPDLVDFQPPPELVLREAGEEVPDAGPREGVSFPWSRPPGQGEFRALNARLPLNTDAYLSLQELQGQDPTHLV
T3 sequence 2: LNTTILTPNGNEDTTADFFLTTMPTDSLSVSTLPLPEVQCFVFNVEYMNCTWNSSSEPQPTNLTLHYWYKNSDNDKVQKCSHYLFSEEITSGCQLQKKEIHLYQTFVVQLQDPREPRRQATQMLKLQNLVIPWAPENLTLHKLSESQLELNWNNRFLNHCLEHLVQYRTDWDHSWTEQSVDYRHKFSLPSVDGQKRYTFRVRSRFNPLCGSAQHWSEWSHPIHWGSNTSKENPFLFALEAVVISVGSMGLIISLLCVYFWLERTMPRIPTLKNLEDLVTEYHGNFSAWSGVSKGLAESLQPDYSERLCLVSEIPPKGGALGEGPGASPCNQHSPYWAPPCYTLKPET
In words: cell-based or functional assay.

The target of experiment [4] is T4, high-affinity hIL-2 receptor (IL-2Rαβγ) on NK-92 cells (human, UniProt P01589 22-272; P14784 27-551; P31785 23-369).
T4 sequence 1: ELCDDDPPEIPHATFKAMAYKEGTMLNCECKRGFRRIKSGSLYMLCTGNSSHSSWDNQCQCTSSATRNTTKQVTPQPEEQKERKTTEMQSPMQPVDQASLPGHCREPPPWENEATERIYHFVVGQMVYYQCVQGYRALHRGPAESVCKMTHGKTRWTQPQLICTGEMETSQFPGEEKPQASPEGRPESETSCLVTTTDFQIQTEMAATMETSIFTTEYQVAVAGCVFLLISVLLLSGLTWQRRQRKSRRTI
T4 sequence 2: T3 sequence 1
T4 sequence 3: T3 sequence 2
Description: cell-based or functional assay.

For experiment [5], the target named is T5, high affinity hIL-2 receptor (hIL-2Rαβγ) on NK-92 cells (human, UniProt P01589 22-272; P14784 27-551; P31785 23-369).
T5 sequence 1: T4 sequence 1
T5 sequence 2: T3 sequence 1
T5 sequence 3: T3 sequence 2
Description: cell-based or functional assay.

Experiment [6] concerns the target T6, intermediate affinity hIL-2 receptor (hIL-2Rβγ) on TF1+IL-2Rβ cells (human, UniProt P14784 27-551; P31785 23-369).
T6 sequence 1: T3 sequence 1
T6 sequence 2: T3 sequence 2
In words: cell-based or functional assay.

Experiment [7] deals with T7, high-affinity hIL-2 receptor (IL-2Rαβγ) (human, UniProt P01589 22-272; P14784 27-551; P31785 23-369).
T7 sequence 1: T4 sequence 1
T7 sequence 2: T3 sequence 1
T7 sequence 3: T3 sequence 2
In words: cell-based or functional assay.

Experiment [8] deals with T8, intermediate affinity hIL-2 receptor complex (IL-2Rβγ) (human, UniProt P14784 27-551; P31785 23-369).
T8 sequence 1: T3 sequence 1
T8 sequence 2: T3 sequence 2
In words: cell-based or functional assay.

T1 sequence (Q15116 21-185 limits assumed): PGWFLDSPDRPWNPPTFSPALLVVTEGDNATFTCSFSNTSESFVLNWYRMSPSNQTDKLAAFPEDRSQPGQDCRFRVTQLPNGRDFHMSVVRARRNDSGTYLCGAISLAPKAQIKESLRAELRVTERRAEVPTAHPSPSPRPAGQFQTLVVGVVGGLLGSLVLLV

B1: 2H7-hIgG4-df-hIL-2 (D20A/R38E) (other)
heavy: EVQLLESGGGLVQPGGSLRLSCAASGFTFKDYCMTWVRQAPGKGLEWVSAIVYSGGSTYYADSVKGRFTISRDNSKNTLYLQMNNLRAEDTAVYYCAKYTRASYFYDAMDVWGQGTTVTVSSASTKGPSVFPLAPCSRSTSESTAALGCLVKDYFPEPVTVSWNSGALTSGVHTFPAVLQSSGLYSLSSVVTVPSSSLGTKTYTCNVDHKPSNTKVDKRV[not shown - about 350 residues with a human IgG4 Fc]
light: EIVLTQSPGTLSLSPGERATLSCRASQSIGKSFLAWYQQKPGQAPRLLIYDASTRAADIPARFSGSGSGTDFTLTISSLEPEDFAVYYCQQYYDWPPLSFGGGTKVEIKRTVAAPSVFIFPPSDEQLKSGTASVVCLLNNFYPREAKVQWKVDNALQSGNSQESVTEQDSKDSTYSLSSTLTLSKADYEKHKVYACEVTHQGLSSPVTKSFNRGEC
notes: anti-hPD-1 IgG4 with attenuated hIL-2 fused to the heavy chain C-terminus
Regarding B1, a half-maximal response in experiment [1] (EC50) required 0.195 nM. This lies in the sub-nanomolar range.

B2: H7-632-hIgG1-LAGA-df-hIL-2 (T3A/D20A/R38E/C125A) (other)
heavy: EVQLLESGGGLVQPGGSLRLSCAASGFTFKSYAMHWVRQAPGKGLEWVSAIVYSGGSTYYADSVKGRFTISRDNSKNTLYLQMNSLRAEDTAVYYCAKYDRASYFYDAMDVWGQGTTVTVSS[not shown - human IgG1 constant region with L235A G237A (EU numbers)]APASSSTKKTQLQLEHLLLALQMILNGINNYKNPKLTEMLTFKFYMPKKATELKHLQCLEEELKPLEEVLNLAQSKNFHLRPRDLISNINVIVLELKGSETTFMCEYADETATIVEFLNRWITFAQSIISTLT
light: B1 light with G30S, K31S, T54D, A57T, D58G, A61D, S78R
notes: anti-hPD-1 IgG1-LAGA with attenuated hIL-2 directly fused to the heavy chain C-terminus
For the molecule B2, in experiment [1], the EC50 (as a rule, the concentration needed to bring the measured effect to its halfway point) came to 0.218 nM.

B3: 1H3-hIgG1-L6-hIL-2 (L72A) (other)
heavy: EVQLVESGGGLVQPGRSLKLSCAVSGFTFSDYAMAWVRQAPKKGLEWVATISYDGSRTYYRDSVKGRFTISRDNAKITLYLQMDSLRSEDTATYYCARHGSGYFDYWGQGVMVTVSS[not shown - about 450 residues with a human IgG1 Fc and changes]
light: DTVLTQSPALAVSPGERVTISCRASESVRTGVHWYQQKPGQQPKLLIYGASNLESGVPARFSGSGSGTDFTLTIDPVEADDTATYFCQQSWNDPFTFGSGTKLEIKRTVAAPSVFIFPPSDEQLKSGTASVVCLLNNFYPREAKVQWKVDNALQSGNSQESVTEQDSKDSTYSLSSTLTLSKADYEKHKVYACEVTHQGLSSPVTKSFNRGEC
notes: Built as m13
On to B3, for which, in experiment [2], the Kd – broadly, the constant that tells how readily two partners part at equilibrium – came to 9.08 nM; the koff (in general, a measure of how fast the partners let go of each other) was found to be 0.00134 s⁻¹; the kon – broadly, the second-order rate constant of association – amounted to 147000 M⁻¹ s⁻¹. Moreover, in experiment [3], the “Fold change from hIL-2 (TF1 + IL-2Rβ), fixed concentration pSTAT5 screen” value stood at 1 fold. Besides, the “Fold change from hIL-2 (NK-92), fixed concentration pSTAT5 screen” value in experiment [4] was found to be 1 fold.

B4: 1H3-hIgG1-L6-hIL-2 (T3A/D20A/R38E/C125A) (other)
heavy: EVQLVESGGGLVQPGRSLKLSCAVSGFTFSDYAMAWVRQAPKKGLEWVATISYDGSRTYYRDSVKGRFTISRDNAKITLYLQMDSLRSEDTATYYCARHGSGYFDYWGQGVMVTVSS[not shown - human IgG1 constant region]SGGGGSAPASSSTKKTQLQLEHLLLALQMILNGINNYKNPKLTEMLTFKFYMPKKATELKHLQCLEEELKPLEEVLNLAQSKNFHLRPRDLISNINVIVLELKGSETTFMCEYADETATIVEFLNRWITFAQSIISTLT
light: B3 light
On to B4, for which the “Fold change from rhIL-2 (NK-92)” value in experiment [5] is above 10000 fold. For the same molecule, in experiment [6], the “Fold change from rhIL-2 (TF1 + IL-2Rβ)” value was around 1090 fold.

B5: 1H3-hIgG1-L6-hIL-2 (D20A/R38E) (other)
heavy: EVQLVESGGGLVQPGRSLKLSCAVSGFTFSDYAMAWVRQAPKKGLEWVATISYDGSRTYYRDSVKGRFTISRDNAKITLYLQMDSLRSEDTATYYCARHGSGYFDYWGQGVMVTVSS[not shown - about 450 residues with a human IgG1 Fc and changes]
light: B3 light
B5: the “Fold change from rhIL-2 (NK-92), pSTAT5 titration” value in experiment [7] was above 10000 fold. In addition, in experiment [8], the “Agonistic Activity (TF1 + IL-2Rβ), pSTAT5 titration” value worked out at 50% and the “Fold change from rhIL-2 (TF1 + IL-2Rβ), pSTAT5 titration” value is around 409 fold.

B6: 1H3-hIgG1-L6-hIL-2 (T3A/D20A/R38E) (other)
heavy: EVQLVESGGGLVQPGRSLKLSCAVSGFTFSDYAMAWVRQAPKKGLEWVATISYDGSRTYYRDSVKGRFTISRDNAKITLYLQMDSLRSEDTATYYCARHGSGYFDYWGQGVMVTVSS[not shown - human IgG1 constant region]SGGGGSAPASSSTKKTQLQLEHLLLALQMILNGINNYKNPKLTEMLTFKFYMPKKATELKHLQCLEEELKPLEEVLNLAQSKNFHLRPRDLISNINVIVLELKGSETTFMCEYADETATIVEFLNRWITFCQSIISTLT
light: B3 light
Take B6: in experiment [7], the “Fold change from rhIL-2 (NK-92), pSTAT5 titration” value is above 10000 fold. Also, the “Agonistic Activity (TF1 + IL-2Rβ), pSTAT5 titration” value in experiment [8] was 60%.

B7: 1H3-hIgG1-L6-hIL-2 (D20A/R38E/C125A) (other)
heavy: EVQLVESGGGLVQPGRSLKLSCAVSGFTFSDYAMAWVRQAPKKGLEWVATISYDGSRTYYRDSVKGRFTISRDNAKITLYLQMDSLRSEDTATYYCARHGSGYFDYWGQGVMVTVSS[not shown - human IgG1 constant region]SGGGGSAPTSSSTKKTQLQLEHLLLALQMILNGINNYKNPKLTEMLTFKFYMPKKATELKHLQCLEEELKPLEEVLNLAQSKNFHLRPRDLISNINVIVLELKGSETTFMCEYADETATIVEFLNRWITFAQSIISTLT
light: B3 light
As for B7, the “Fold change from rhIL-2 (NK-92)” value in experiment [5] was above 10000 fold. Further, the “Fold change from rhIL-2 (TF1 + IL-2Rβ)” value in experiment [6] is around 2100 fold.

B8: 1H3-hIgG1-L6-hIL-2 (L72F) (other)
heavy: EVQLVESGGGLVQPGRSLKLSCAVSGFTFSDYAMAWVRQAPKKGLEWVATISYDGSRTYYRDSVKGRFTISRDNAKITLYLQMDSLRSEDTATYYCARHGSGYFDYWGQGVMVTVSS[not shown - about 450 residues with a human IgG1 Fc and changes]
light: B3 light
notes: Built as m13
As to B8, in experiment [2], the Kd was found to be 5.04 nM, the koff came out at 0.00115 s⁻¹ and the on-rate constant (kon) amounted to 228000 M⁻¹ s⁻¹. For the same molecule, the “Fold change from hIL-2 (TF1 + IL-2Rβ), fixed concentration pSTAT5 screen” value in experiment [3] is 1 fold. The “Fold change from hIL-2 (NK-92), fixed concentration pSTAT5 screen” value in experiment [4] was 1 fold.

B9: C51E6-5-hIgG4-L6-hIL-2 (D20A/R38E) (other)
heavy: QVQLVQSGSELKKPGASVKVSCKASGYSLYGTSMHWVRQAPGQGLEWMGYISPFTGRATYAQGFTGRFVFSLDTSVSTAYLQISSLKAEDTAVYYCARDYDYRYYYAMDYWGQGTTVTVSSASTKGPSVFPLAPCSRSTSESTAALGCLVKDYFPEPVTVSWNSGALTSGVHTFPAVLQSSGLYSLSSVVTVPSSSLGTKTYTCNVDHKPSNTKVDKRV[not shown - about 350 residues with a human IgG4 Fc and changes]
light: EIVLTQSPDFQSVTPKEKVTITCTASESVPPQFLHWYQQKPDQSPKLLIYASRERASGVPSRFSGSGSGTDFTLTINSLEAEDAATYYCHQFHRSPLTFGGGTKLEIKRTVAAPSVFIFPPSDEQLKSGTASVVCLLNNFYPREAKVQWKVDNALQSGNSQESVTEQDSKDSTYSLSSTLTLSKADYEKHKVYACEVTHQGLSSPVTKSFNRGEC
notes: as for B1
Turning to B9, a half-maximal effect in experiment [1] (EC50) was put at 1.59 nM.
